Article PMC4336329 (PLoS ONE, 2015)
About 2,200 (0.71%) of roughly 310,000 compounds showed an effect of 50% or more. Effects have a minus sign here. The list shows a part of the results.

target: human ether-à-go-go-related gene (hERG) potassium channel (human, UniProt Q12809); assay: primary screen, population patch clamp on CHO cells stably expressing hERG
Sequence (Q12809 whole entry, looked up): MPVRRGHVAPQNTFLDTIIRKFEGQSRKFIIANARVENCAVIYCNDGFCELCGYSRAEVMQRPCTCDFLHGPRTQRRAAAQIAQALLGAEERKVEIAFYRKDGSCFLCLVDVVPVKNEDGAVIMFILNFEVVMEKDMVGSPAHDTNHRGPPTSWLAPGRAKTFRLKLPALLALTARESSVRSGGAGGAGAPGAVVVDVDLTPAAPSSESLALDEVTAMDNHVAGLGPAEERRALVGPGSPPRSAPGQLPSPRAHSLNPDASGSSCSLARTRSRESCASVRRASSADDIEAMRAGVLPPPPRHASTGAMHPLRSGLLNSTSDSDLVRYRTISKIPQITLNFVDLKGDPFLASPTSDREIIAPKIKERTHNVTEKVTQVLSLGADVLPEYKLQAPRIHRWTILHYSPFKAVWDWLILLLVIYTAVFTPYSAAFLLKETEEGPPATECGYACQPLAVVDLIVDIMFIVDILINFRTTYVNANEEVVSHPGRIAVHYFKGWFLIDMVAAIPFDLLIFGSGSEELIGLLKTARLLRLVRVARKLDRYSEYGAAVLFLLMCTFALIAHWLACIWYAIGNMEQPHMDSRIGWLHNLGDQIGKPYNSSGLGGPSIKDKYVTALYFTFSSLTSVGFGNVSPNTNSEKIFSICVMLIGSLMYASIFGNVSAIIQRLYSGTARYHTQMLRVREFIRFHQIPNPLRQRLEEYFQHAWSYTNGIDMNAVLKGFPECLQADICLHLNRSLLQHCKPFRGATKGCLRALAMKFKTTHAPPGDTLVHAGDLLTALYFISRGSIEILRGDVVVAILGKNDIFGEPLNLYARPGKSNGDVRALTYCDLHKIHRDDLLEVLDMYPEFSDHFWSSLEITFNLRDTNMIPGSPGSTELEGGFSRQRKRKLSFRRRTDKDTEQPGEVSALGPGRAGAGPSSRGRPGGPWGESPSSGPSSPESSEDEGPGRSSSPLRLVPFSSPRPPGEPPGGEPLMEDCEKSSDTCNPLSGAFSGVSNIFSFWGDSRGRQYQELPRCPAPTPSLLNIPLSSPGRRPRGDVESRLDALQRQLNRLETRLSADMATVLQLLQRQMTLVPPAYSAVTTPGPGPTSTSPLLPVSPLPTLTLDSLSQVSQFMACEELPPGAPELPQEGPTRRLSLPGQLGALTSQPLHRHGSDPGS

SMILES	hERG current change (%, negative = inhibition) at 1uM [%]
O=C(Nc1ccccc1)c1ccccc1NC(=O)[C@H]1CCCC[C@H]1C(=O)O	15.3
O=C(C1CC(=O)N(C2CCCC2)C1)N1CCC(Cc2ccccc2)CC1 (stereo not drawn)	9.43
CCOc1ccccc1CN1CCNC(=O)C1CC(=O)NCc1nc(C)cs1 (stereo not drawn)	-5.34
Clc1ccccc1Sc1cnc2ccccc2n1	-5.31
COc1ccc(N2CC(C(=O)N3CCN(c4ccccc4F)CC3)CC2=O)cc1 (stereo not drawn)	-6.33
COCCNC(=S)Nc1ccc(N2CCCCC2)cc1	0.561
COc1ccc(-c2ccc3nnc(SCC(=O)Nc4ccc(NC(C)=O)cc4)n3n2)cc1	11.9
CCNc1nc(NC(C)C)nc(Oc2ccc(OCc3ccccc3)nn2)n1	3.26
CCOc1ccc(OCC)c(S(=O)(=O)n2cnc(C)c2)c1	11
Cc1ccc(CSCC2Nc3ccc(C(=O)N4CCN(c5ccc(F)cc5)CC4)cc3NC2=O)cc1 (stereo not drawn)	16.7
O=C(NCc1ccco1)c1cc(-c2cccs2)nc2ccccc12	13.4
COc1ccc(CC(=O)NC(=S)NNC(=O)COc2c(C)cccc2C)cc1	4.76
CCCCCCC12CCC(C(=O)O)(CC1)CC2	4.88
CNC(=S)NNC(=O)c1oc2nc(-c3ccccc3)cc(C)c2c1N	-3.52
CCOC(=O)c1c(C)[nH]c(C)c1S(=O)(=O)N(C)Cc1ccco1	18.2
CCc1ccc(NC(=O)c2ccc(Cn3cc([N+](=O)[O-])cn3)cc2)cc1	10.6
CN(Cc1ccccc1)S(=O)(=O)c1ccc(OCC(=O)Nc2cccc([N+](=O)[O-])c2)cc1	7.23
COc1ccc(S(=O)(=O)N(CC(=O)Nc2cccnc2)c2ccccc2OC)cc1	0.84
O=C(O)CCC1COc2ccccc2O1 (stereo not drawn)	15.5

SMILES	hERG current change (%, negative = inhibition) at 1uM [%]
CN(C(=O)NC(=O)C1=C(N2CCOCC2)/C(=C/c2ccccc2)CC1)S(C)(=O)=O	13.8
O=C(Nc1nccs1)c1ccc2nccnc2c1	11.6
CCOc1ccc(C2C(C#N)=C(N)Oc3cc(O)ccc32)cc1OCC (stereo not drawn)	11.8
CN1C(=O)c2ccc(C(=O)Nc3nccs3)cc2C1=O	-36.3
CCn1c(C)cc(=O)cc1-c1ccc(Cl)cc1	12.8
Cc1noc2ncnc(Sc3ccc(Br)cc3)c12	7.75
COC(=O)c1cccc(NC(=O)NC23CC4CC(CC(C4)C2)C3)c1	3.34
CN1C(C(=O)NCC2CC2)CC2Cn3c(nc4cc5ccccc5cc43)C21 (stereo not drawn)	7.22
O=C(NCc1cc(C(F)(F)F)cc(C(F)(F)F)c1)C1CC(c2ccccc2F)=NO1 (stereo not drawn)	9.77
CCCCn1c(SCC(=O)NC(C)CC)nc2ccc(N3CCOCC3)cc2c1=O (stereo not drawn)	4.61
CCc1cc(CNC(=O)CC2C(=O)NCCN2Cc2ccc(-c3ccccc3)cc2)on1 (stereo not drawn)	-0.485
CCC(C)C(Nc1ccc(C(=O)OC)cc1[N+](=O)[O-])C(=O)OC (stereo not drawn)	17.1
CC(=O)c1c(N2CCCCC2)nc(=S)n(-c2ccccc2)c1C	-0.721
O=c1[nH]c(=S)[nH]cc1S(=O)(=O)c1cccc(Cl)c1	14.5
CC(=O)c1cccc(NC(=O)N2C[C@H]3C[C@@H](C2)c2cccc(=O)n2C3)c1	8.97
Cc1ccc2c(c1)COc1c3ccc(C(=O)N4CCOCC4)cc3nn1-2	2.38
CON(C)S(=O)(=O)c1cccc(C(=O)NC2CCSc3ccccc32)c1 (stereo not drawn)	8.71
N#Cc1ccccc1CN1C(=O)S/C(=C/c2cccn2-c2cccc(C(=O)O)c2)C1=O	-6.72
O=C(COc1ccccc1F)NC12CC3CC(CC(C3)C1)C2	2.8

SMILES	hERG current change (%, negative = inhibition) at 1uM [%]
COc1ccccc1CNC(=O)c1ccc(CS(=O)(=O)c2ccc(C)cc2)o1	3.63
O=c1ccnc2n1COCS2	14.3
CCN(C(=O)COC(=O)c1cncc(Br)c1)C1CCS(=O)(=O)C1 (stereo not drawn)	21.3
CCc1nnc(NC(=O)CCC(=O)NCc2ccc(OC)cc2)s1	9.45
Cc1cccc(C(=O)Nc2cc(NC(=O)c3cccs3)ccc2C)c1	11.1
Cc1ccc(NC(=O)CSC(C)c2nc3ccccc3c(=O)[nH]2)cc1 (stereo not drawn)	7.19
CCSc1ncc(Cl)c(C(=O)Nc2ccccc2OC)n1	12.5
CSCCC(NC(=O)c1ccc(Cl)cc1)C(=O)OCC(=O)Nc1ccc(C#N)cc1 (stereo not drawn)	-1.39
CCc1ccccc1OCCCCN1CCCCC1.O=C(O)C(=O)O	-0.482
Cl.NC(=NCCc1ccccc1)c1cccc([N+](=O)[O-])c1	-10.5
CCS(=O)(=O)c1ccc(O)c(NC(=O)COc2ccc(Br)cc2)c1	18.6
CCC(=O)N(Cc1cc(=O)[nH]c2ccccc12)c1ccc(C)cc1	-1.06
COc1ccc(NC(=O)CS(=O)c2cccc(Cl)c2)cc1 (stereo not drawn)	1.95
COc1ccc(S(=O)(=O)Nc2ccccc2C(=O)NCc2cccnc2)cc1OC	13.6
COc1ccc(CN(C(=O)/C=C/C(=O)c2ccc(OC)cc2O)C(C(=O)NC2CCCCC2)c2ccncc2)cc1 (stereo not drawn)	2.85
Cc1ccc(Oc2ccc(/C=N/O)cn2)cc1	7.97
Cc1ccc(Oc2nc(CN3CCOCC3)nc3sc4c(c23)CCC(C)C4)cc1C (stereo not drawn)	7.13
COC(=O)c1cc2c(=O)n3ccccc3nc2n(Cc2cccnc2)c1=N	-51.5
COc1ccc(/C=C2\SC(=O)N(CCC(=O)NC3CCS(=O)(=O)C3)C2=O)cc1 (stereo not drawn)	13.9
